Read counts are not given, so values of variants with three or more changes are uncertain.
B1: OR4K15 (parent)
chain: GUUAACGGUCAUAGGCCAUGGAAACUAGGAGCACCAUUUCGCUGCCAGUGAAGAAAUGAACAAAGAAAAUCUGGGCCAGGCAGGCAUCAAAAGAAAUAGUCUUGCGCUCAACCAGAAAGUCUGUAAUCAUUUUAAGGGUA

Variants of: B1
Test: self-cleavage, relative activity (ratio to wild type); higher = more cleavage; in vitro, sequencing; the parent is a self-cleaving ribozyme

Variant | self-cleavage
A62G A69G U100C | 1.86
A13G U39C U57C U130C | 1.11
G58A A62G A68G | 0.35
A23G A67G G74A | 0.37
A22G U38C U39C | 0.13
U19C A86U A116U | 0.42
A96G A117G U124C | 1.2
A24G U49C A111G A117C | 0.01
A18U A114G U122C | 0.03
U2A A18C U38A A63G | 0.7
A5G A30G U37C A69G | 0.34
A51U A68G A86U A91G | 1.36
U19A U43C A126G U132C | 0.63
U108C A117G A125G A129G A134U | 0
A55G A86G A118G | 1.08
U19C U39C A125U | 2.21
U72C A86G U124C | 0.09
A24U U49A A56U | 0.89
U19A A30G A68G | 0.57
U9A A11C A62G A118G | 1.99
A22G C40U A110G U130A | 0.07

Variant | self-cleavage
U37C U43A A52G A63G | 1.26
A63C A64C U122C | 1.75
A68U U72C U102A | 0.16
A23G A96G A126G | 0.79
A66G A89G U102C A117G | 2.77
U9C A22C A33G U57C | 0.52
C17U U49C A114G G136A | 0.27
A22G A54G A126G | 0.3
U39C A51U A94G | 1.46
U39C A91U A114G | 0.63
A11G A82G A90G A134G | 0.2
C10A C77U A78U U131C | 1.06
A89U A118G G138A | 1.76
C34G U39A A54G A60C A92G | 1.59
A27G U131C U133A | 0.51
A13G A33G U38C | 0.48
G20A A62G A90G A94U | 1.97
A5C A62G U108C | 0.04
U38C A47G A82U | 0.06
A18G A47U A111G A126G | 0.02
U19C U43C A51U A68G | 1.01

Variant | self-cleavage
A24G U37A U43C A55U A89C | 1.51
A18G U26C A27U C61U A110G | 0.25
A11G U87C A117G | 0.94
A56G U100C A129C | 2.03
U43C A64G G137U | 1.47
U2C U49C U102C | 1.43
G84A A89G U103C U127C | 1.78
U26C A51G A54G A55U | 1.1
U2C A23G A51G | 0.48
U3C A55G A110G A117U | 0.12
A22U A66G C77U A92G | 1.07
U3C A33G U120A | 1.15
U57A A86G A96G U108C A111G | 0.02
U72A A92G A110G | 0.08
A66G A118G U127C | 0.49
A94G A96G U97A U108C | 0.03
A13G U37C A54U A69U U108C A114G C128A U131C | 0.03
U37C A69G U87C U122G U130C | 1.02
U43C A67G U103C | 0.86
A30U A68U U132C | 0.95
A63G A69G U70C A92G A118G U132C | 0.15

Variant | self-cleavage
U49C A52G A63G A118G | 1.25
A24G U39C A51U U87C A118G | 1.11
A23G A63G G80A A90G | 0.19
U19C U39A A111G | 0.01
A51G A59G U97C | 0.58
U3A A4G C34U G74A | 0.15
A36U U87A A91G A140C | 0.94
A5G U38A A69G U133C | 1.16
A18U U57C G104A | 0.01
A11G A30U A51G A66G | 0.88
U39C A68G A92G A129U | 1.05
U3C A13G A22G U87C | 1.07
A22G A52G A67U U108C | 0.04
A54G A98G A125G | 0.1
U9C U39C U97A U133C | 2.2
A47G U49C U103C | 0.3
U39A A63G U100C A110G | 0.16
A60U A95G U108A | 0.01
A47G A55G A69G | 0.61
A23G A56G A114U | 0.04
